The results in this text go back to patent publication US9382245B2, “Compounds and methods for treating HIV infections” (priority 2013, dated 2016).

Read-outs that look alike come from different tables or passages of the source. Where only a bound is given, the exact number is not on record here.

Test in all cases: microbe, parasite or virus in culture
What all share (format): cell-based

Test [1] deals with IIIB strain of HIV-1 (wild-type).
The test system of test [2] is HIV-1 variant strain with K103N/Y181C mutations in RT.
Test [3] concerns HIV-1 variant strain with Y181C mutation in RT.
The mark [4] stands for this setting: Human immunodeficiency virus 1, IIIB, MT2, Table 1, 50% protection in MT-2 cells, NA = EC50 > CC50, read-out: WT EC50.
Where [5] appears, read: Human immunodeficiency virus 1, IIIB, MT2, text, MT-2 cell assay, read-out: EC50 towards wild-type HIV-1.
[6] abbreviates: Human immunodeficiency virus 1, MT2, read-out: 103N181C EC50, Table 1, 50% protection in MT-2 cells, NA = EC50 > CC50.
Where [7] appears, read: Human immunodeficiency virus 1, IIIB, MT2, Table 4, 50% protection in MT-2 cells, NA = EC50 > CC50, read-out: WT EC50.
[8] abbreviates: Human immunodeficiency virus 1, MT2, Table 4, 50% protection in MT-2 cells, NA = EC50 > CC50, read-out: Y181C EC50.
The mark [9] stands for this setting: Human immunodeficiency virus 1, MT2, read-out: K103N/Y181C EC50, Table 4, 50% protection in MT-2 cells, NA = EC50 > CC50.
[10] abbreviates: Human immunodeficiency virus 1, MT2, Table 1, 50% protection in MT-2 cells, NA = EC50 > CC50, read-out: Y181C EC50.
Setting [11] is: Human immunodeficiency virus 1, MT2, text, MT-2 cell assay.

As to `O=c1ccn(CCOc2ccccc2Oc2cccc3[nH]ccc23)c(=O)[nH]1` [8a, 1-(2-(2-((1H-indol-4-yl)oxy)phenoxy)ethyl)pyrimidine-2,4(1H,3H)-dione], the EC50 in test [1] (setting [4]) and in test [1] (setting [5]) was 85 nM throughout.
As to `Cc1cc(Oc2ccccc2OCCn2ccc(=O)[nH]c2=O)c2cc(C#N)oc2c1` [12b, 4-(2-(2-(2,4-dioxo-3,4-dihydropyrimidin-1(2H)-yl)ethoxy)phenoxy)-6-methylbenzofuran-2-carbonitrile], the EC50 worked out at 210 nM in test [1] (setting [4]), 210 nM in test [1] (setting [5]) and 1300 nM in test [2] (setting [6]).
As for `Cc1cc2c(Oc3ccc(Cl)cc3OCCn3ccc(=O)[nH]c3=O)cccc2o1` [12g, 1-(2-(5-chloro-2-((2-methylbenzofuran-4-yl)oxy)phenoxy)ethyl)pyrimidine-2,4(1H,3H)-dione], in test [1] (setting [4]), the EC50 is 25 nM.
Take `Cc1ccc2c(Oc3ccccc3OCCn3ccc(=O)[nH]c3=O)cccc2c1` [14b, 1-(2-(2-((6-methylnaphthalen-1-yl)oxy)phenoxy)ethyl)pyrimidine-2,4(1H,3H)-dione]: the EC50 in test [1] (setting [7]) worked out at 250 nM; in test [3] (setting [8]), 12000 nM; in test [2] (setting [9]), 15000 nM.
With `N#Cc1cc2c(Oc3ccccc3OCCn3ccc(=O)[nH]c3=O)cc(Cl)cc2o1` [12c, 6-chloro-4-(2-(2-(2,4-dioxo-3,4-dihydropyrimidin-1(2H)-yl)ethoxy)phenoxy)benzofuran-2-carbonitrile], the EC50 in test [1] (setting [4]) amounted to 19 nM; in test [1] (setting [7]) it was 19 nM; in test [3] (setting [10]) it was 1900 nM; in test [3] (setting [8]) it was 1900 nM; in test [2] (setting [6]), 260 nM; in test [2] (setting [9]), 260 nM.
Turning to `N#Cc1cc2c(Oc3cc(F)c(F)cc3OCCn3ccc(=O)[nH]c3=O)cc(F)cn2c1` [10l, 8-(2-(2-(2,4-dioxo-3,4-dihydropyrimidin-1(2H)-yl)ethoxy)-4,5-difluorophenoxy)-6-fluoroindolizine-2-carbonitrile], the EC50 worked out at 6.8 nM in test [1] (setting [4]), 1200 nM in test [3] (setting [10]) and 230 nM in test [2] (setting [6]).
In the case of `N#Cc1ccc2c(Oc3ccc(Cl)cc3OCCn3ccc(=O)[nH]c3=O)cc(Cl)cc2c1` [14h, 7-chloro-5-(4-chloro-2-(2-(2,4-dioxo-3,4-dihydropyrimidin-1(2H)-yl)ethoxy)phenoxy)-2-naphthonitrile], the figures for the EC50 in test [1] (setting [7]), in test [3] (setting [8]) and in test [2] (setting [9]) were 11 nM, 49 nM and 280 nM, respectively.
For the compound `N#C/C=C/c1cc(Cl)cc(Oc2ccccc2OCCn2ccc(=O)[nH]c2=O)c1` [1c, (E)-3-(3-chloro-5-(2-(2-(2,4-dioxo-3,4-dihydropyrimidin-1(2H)-yl)ethoxy)phenoxy)phenyl)acrylonitrile], the EC50 in test [1] (setting [7]) came out at 0.31 nM; in test [1] (setting [5]), 0.32 nM; in test [3] (setting [8]), 46 nM; in test [2] (setting [9]) it was 24 nM.
Regarding `Cc1cc(Oc2ccccc2OCCn2ccc(=O)[nH]c2=O)c2[nH]ccc2c1` [9a, 1-(2-(2-((5-methyl-1H-indol-7-yl)oxy)phenoxy)ethyl)pyrimidine-2,4(1H,3H)-dione], in test [1] (setting [4]), the EC50 worked out at 6000 nM.
Same read-out and setting: the same measure for `O=c1ccn(CCOc2cc(Cl)ccc2Oc2cccc3ccoc23)c(=O)[nH]1` [13a, 1-(2-(2-(benzofuran-7-yloxy)-5-chlorophenoxy)ethyl)pyrimidine-2,4(1H,3H)-dione]: 900 nM.
Take `N#Cc1ccc2c(Oc3ccccc3OCCn3ccc(=O)[nH]c3=O)cc(F)cc2c1` [14k, 5-(2-(2-(2,4-dioxo-3,4-dihydropyrimidin-1(2H)-yl)ethoxy)phenoxy)-7-fluoro-2-naphthonitrile]: the EC50 in test [1] (Human immunodeficiency virus 1, IIIB, MT2, Table 3, 50% protection in MT-2 cells, NA = EC50 > CC50, read-out: WT EC50) was 1.1 nM; in test [1] (setting [7]) it was 1.1 nM; in test [3] (Human immunodeficiency virus 1, MT2, Table 3, 50% protection in MT-2 cells, NA = EC50 > CC50, read-out: Y181C EC50) it was 8 nM; in test [3] (setting [8]), 8 nM; in test [3] (setting [11]) it was less than 10 nM; in test [2] (Human immunodeficiency virus 1, MT2, read-out: 103N181C EC50, Table 3, 50% protection in MT-2 cells, NA = EC50 > CC50), 6 nM. Moreover, the EC50 in test [2] (Human immunodeficiency virus 1, MT2, read-out: EC50 towards K103N/Y181C variant, MT-2 cell assay) was roughly 10 nM; in test [2] (setting [9]), 6 nM; in test [2] (read-out: EC50 towards K103N/Y181C variant, MT-2 cell assay), less than 10 nM.
`N#Cc1cc2c(Oc3cc(F)c(F)cc3OCCn3ccc(=O)[nH]c3=O)cccn2c1` [10k, 8-(2-(2-(2,4-dioxo-3,4-dihydropyrimidin-1(2H)-yl)ethoxy)-4,5-difluorophenoxy)indolizine-2-carbonitrile]: the EC50 in test [1] (setting [4]) was 3.2 nM; in test [3] (setting [10]), 1200 nM; in test [2] (setting [6]), 500 nM.
On to `N#Cc1cc2c(Oc3ccc(Cl)cc3OCCn3ccc(=O)[nH]c3=O)cccc2o1` [12h, 4-(4-chloro-2-(2-(2,4-dioxo-3,4-dihydropyrimidin-1(2H)-yl)ethoxy)phenoxy)benzofuran-2-carbonitrile], for which the EC50 in test [1] (setting [4]) and in test [1] (setting [7]) was 7 nM each time.
On to `N#Cc1cc2c(Oc3ccccc3OCCn3ccc(=O)[nH]c3=O)cc(Cl)cc2[nH]1` [8f, 6-chloro-4-(2-(2-(2,4-dioxo-3,4-dihydropyrimidin-1(2H)-yl)ethoxy)phenoxy)-1H-indole-2-carbonitrile], for which the EC50 in test [1] (setting [4]) was 340 nM; in test [1] (setting [7]) it was 340 nM; in test [1] (setting [5]), 340 nM; in test [3] (setting [10]), 27000 nM; in test [3] (setting [8]), 27000 nM; in test [2] (setting [6]), 2700 nM. For the same compound, the EC50 in test [2] (setting [9]) was 2700 nM.
As for `Cc1cc(Oc2ccc(F)cc2OCCn2ccc(=O)[nH]c2=O)c2cc(C#N)oc2c1` [12e, 4-(2-(2-(2,4-dioxo-3,4-dihydropyrimidin-1(2H)-yl)ethoxy)-4-fluorophenoxy)-6-methylbenzofuran-2-carbonitrile], the EC50 in test [1] (setting [4]) was 260 nM; in test [2] (setting [6]), 5000 nM.
`Cc1cc(Oc2ccc(F)cc2OCCn2ccc(=O)[nH]c2=O)c2cc(C#N)cn2c1` [10g, 8-(2-(2-(2,4-dioxo-3,4-dihydropyrimidin-1(2H)-yl)ethoxy)-4-fluorophenoxy)-6-methylindolizine-2-carbonitrile]: the results for the EC50 in test [1] (setting [4]), in test [3] (setting [10]) and in test [2] (setting [6]) were 2 nM, 400 nM and 250 nM, respectively.
In the case of `Cc1cc2c(Oc3ccccc3OCCn3ccc(=O)[nH]c3=O)cccn2c1` [10a, 1-(2-(2-((2-methylindolizin-8-yl)oxy)phenoxy)ethyl)pyrimidine-2,4(1H,3H)-dione], in test [1] (setting [4]), the EC50 turned out to be 50 nM.
For the compound `O=c1ccn(CCOc2ccccc2Oc2cccc3cc(Cl)ccc23)c(=O)[nH]1` [14c, 1-(2-(2-((6-chloronaphthalen-1-yl)oxy)phenoxy)ethyl)pyrimidine-2,4(1H,3H)-dione], the figures for the EC50 in test [1] (setting [7]), in test [3] (setting [8]) and in test [2] (setting [9]) were 14 nM, 1000 nM and 710 nM, respectively.
In the case of `O=c1ccn(CCOc2cc(Cl)ccc2Oc2cccc3occc23)c(=O)[nH]1` [12f, 1-(2-(2-(benzofuran-4-yloxy)-5-chlorophenoxy)ethyl)pyrimidine-2,4(1H,3H)-dione], the EC50 in test [1] (setting [4]) was found to be 800 nM.
`Cc1cc(Oc2ccccc2OCCn2ccc(=O)[nH]c2=O)c2cc(C#N)[nH]c2c1` [8e, 4-(2-(2-(2,4-dioxo-3,4-dihydropyrimidin-1(2H)-yl)ethoxy)phenoxy)-6-methyl-1H-indole-2-carbonitrile]: the EC50 in test [1] (setting [4]) stood at 10 nM; in test [1] (setting [7]) it was 10 nM; in test [1] (setting [5]) it was 10 nM; in test [2] (setting [6]), 800 nM; in test [2] (setting [9]) it was 800 nM.
As to `N#Cc1cc2c(Oc3ccccc3OCCn3ccc(=O)[nH]c3=O)cc(F)cn2c1` [10d, 8-(2-(2-(2,4-dioxo-3,4-dihydropyrimidin-1(2H)-yl)ethoxy)phenoxy)-6-fluoroindolizine-2-carbonitrile], the EC50 came to 0.7 nM in test [1] (setting [4]), 170 nM in test [3] (setting [10]), 170 nM in test [3] (setting [11]) and 68 nM in test [2] (setting [6]). In addition, in test [1] (MT-2 cell assay), the “activity towards the wild-type virus, in words” value is recorded as “high picomolar inhibitors”.
`Cc1cc2c(Oc3ccccc3OCCn3ccc(=O)[nH]c3=O)cccc2[nH]1` [8c, 1-(2-(2-((2-methyl-1H-indol-4-yl)oxy)phenoxy)ethyl)pyrimidine-2,4(1H,3H)-dione]: the EC50 in test [1] (setting [4]) amounted to 390 nM.
In the case of `Cc1cc2cccc(Oc3ccccc3OCCn3ccc(=O)[nH]c3=O)c2[nH]1` [9b, 1-(2-(2-((2-methyl-1H-indol-7-yl)oxy)phenoxy)ethyl)pyrimidine-2,4(1H,3H)-dione], in test [1] (MT-2 cell assay), the “activity towards the wild-type virus, in words” value was “inactive”.
Regarding `N#Cc1cc2c(Oc3ccccc3OCCn3ccc(=O)[nH]c3=O)cccc2o1` [12a, 4-(2-(2-(2,4-dioxo-3,4-dihydropyrimidin-1(2H)-yl)ethoxy)phenoxy)benzofuran-2-carbonitrile], the EC50 in test [1] (setting [4]) amounted to 18 nM; in test [1] (setting [7]) it was 18 nM; in test [1] (setting [5]) it was 18 nM; in test [1] (MT-2 cell assay, listed as 9c, read-out: EC50 towards wild-type HIV-1), 19 nM; in test [2] (setting [6]), 420 nM; in test [2] (setting [9]) it was 420 nM.
Consider `O=c1ccn(CCOc2cc(Cl)ccc2Oc2cccc3[nH]ccc23)c(=O)[nH]1` [8b, 1-(2-(2-((1H-indol-4-yl)oxy)-5-chlorophenoxy)ethyl)pyrimidine-2,4(1H,3H)-dione], for which, in test [1] (setting [4]), the EC50 worked out at 1600 nM.
